Reference: PubChem BioAssay AID686978 (National Center for Advancing Translational Sciences (NCATS), 2013)
“And” between values parts separate entries of the source, which are not always exact repeats. Equal entries are not always repeated. Hit rate of the full screen: of about 420,000 compounds, about 64,000 (15%) were called active. The shares of active, inactive and inconclusive entries below differ from those in the screen. The call rests on the fitted dose curve; in most records, active means well fitted inhibition curve with a large enough effect; inconclusive means small, poorly fitted or top-dose-only effect; inactive means flat fitted curve, though single readings scatter. Potencies of inconclusive entries are left out as doubtful fits. The source holds several records for some structures; these can differ, active in one and inactive in another.

Assay: qHTS for Inhibitors of human tyrosyl-DNA phosphodiesterase 1 (TDP1): qHTS in cells in absence of CPT; further: nearly all actives have a fitted effect of over 55% in size
Conditions: DT40 Tdp1-/- hTDP1 cells, no CPT, ATP luminescence, 48 h; activity change, negative = growth inhibition: at 46.2 µM (top of the series) unless noted
Outline: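 Stably hTDP1-transfected Tdp1-null chicken DT40 cells were treated with library compounds minus camptothecin and grown for at least 48 hr at 37 °C, after which cellular ATP was quantified by luminescence.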
On the % scale 0 is the no-effect control and ±100 the full control effect; potency means the concentration at half of the fitted maximal effect; tags describe the fitted curve by direction and shape.

Structure (SMILES)	Potency	activity change, negative = growth inhibition
O=C(NC1CCCC1)c1nc(-c2c(F)cccc2F)oc1-c1ccccc1	inconclusive [inhibitor, single point]	
CC(=O)NCCn1c(SCC(=O)c2ccccc2)nc2ccccc2c1=O	inconclusive [inhibitor, single point]	
Cc1cccc(CNC(=O)CCCN2C(=O)CCn3nc(-c4cn(C)c5ccccc45)cc32)c1	inconclusive [inhibitor, single point]	
CC(=O)c1c(C)[nH]c(C(=O)CN2C(=O)NC(C)(c3ccc4c(c3)OCCO4)C2=O)c1C (centres undefined)	inconclusive [inhibitor, partial curve]	
OCc1nc2ccccc2n1Cc1c(F)cccc1Cl	inactive and active: 14.6 µM	
Cc1ccccc1OCC(=O)N(Cc1ccc(N(C)C)cc1)CC1CCCO1 (centres undefined)	active: 20.6 µM	
Cc1cc(C)c(C)c(S(=O)(=O)Nc2ccc(C(=O)N3CCCC3)cc2)c1C	inconclusive [inhibitor, single point]	
CCc1c(C)nc(SCC(=O)c2cccs2)c(C#N)c1C	inconclusive [inhibitor, single point]	
O=C(NCCNc1ccccc1[N+](=O)[O-])c1ccccc1F		inconclusive: -30.5% [inhibitor]
Cc1cc2c(cc1S(=O)(=O)Nc1cccc(F)c1)n(C)c(=O)c(=O)n2C		inactive: -20.4%
CCC(C(=O)NCc1ccco1)n1nc(-c2ccc(OC)cc2)ccc1=O (centres undefined)	inconclusive [inhibitor, partial curve, poor fit]	
CCN1CCN(c2c(S(=O)(=O)c3ccccc3)cnc3ccc(Cl)cc23)CC1	inconclusive [inhibitor, partial curve]	
CONC(=O)c1ccc(-c2cccc3nccn23)cc1	inconclusive [inhibitor, single point]	
O=C(CSc1nnc(SCc2cccc3ccccc23)s1)N/N=C/c1c[nH]c2ccccc12	active: 16.4 µM	
COc1ccc(C[C@H]2CN3C(=NC[C@H]3Cc3ccccc3)N2CCNC(=O)CCC2CCCCC2)cc1	active: 25.9 µM	
O=S(=O)(Nc1ccc(N=Nc2ccccc2)cc1)c1ccccc1	inconclusive [inhibitor, single point]	
CCN(CC)c1ccc(NC(=O)c2cc(S(=O)(=O)N3CCc4ccccc43)cn2C)c(C)c1	inconclusive [inhibitor, full curve, poor fit]	
Cc1ccc2cc(C(c3nnnn3CC3CCCO3)N3CCc4ccccc4C3)c(=O)[nH]c2c1 (centres undefined)	inconclusive [inhibitor, single point]	
FC(F)(F)c1cnc(NNC(=S)Nc2ccc(Cl)cc2)c(Cl)c1	active: 13 µM	
COc1cc(CC(=O)N/N=C/c2ccc([N+](=O)[O-])cc2)c([N+](=O)[O-])cc1OC	inconclusive [inhibitor, partial curve, poor fit]	
CC/C(=N\NC(=O)CCC(=O)NCc1ccccc1)c1ccc(O)cc1	active: 4.11 µM	
COc1cccc2c1C(=O)c1c(O)c3c(c(O)c1C2=O)C[C@](O)(C(C)=O)C[C@H]3O[C@@H]1C[C@@H](N)[C@@H](O)[C@@H](C)O1	active: 0.092 µM	
C=CCn1c(NCc2ccccc2O)nc2ccccc21	inconclusive [inhibitor, single point]	

Structure (SMILES)	Potency	activity change, negative = growth inhibition
O=C(N/N=C/c1ccsc1)c1cc2ccccc2o1		inactive: -3.05%
Cc1cn([C@H]2C[C@H](O)[C@@H](CCC(=O)NCC3CCCO3)O2)c(=O)[nH]c1=O (some centres undefined)		inactive: -9.28%
COc1ccc2nc(NC(=O)Nc3ccccc3OC)sc2c1	active: 5.17 µM	
COCc1nnc(NC(=O)c2ccc(S(=O)(=O)N3CCCc4ccccc43)cc2)o1	inconclusive [inhibitor, single point]	
CC(C)CN(C1CCS(=O)(=O)C1)S(=O)(=O)c1ccc2ccccc2c1 (centres undefined)	inconclusive [inhibitor, single point]	
O=C(/C=C/c1ccc2c(c1)OCO2)Nc1nc(-c2ccccc2)cs1	inconclusive [inhibitor, single point]	
COC(=O)[C@@]1(Sc2ccc(C)cc2)CC(=O)N(c2cccc(SC)c2)[C@@H]1c1ccccc1		inactive: -80.6%
COc1ccc(C2=NOC(Cn3nc(C(=O)NCc4cccs4)cc3-c3ccccc3)C2)cc1 (centres undefined)	inconclusive [inhibitor, single point]	
COc1ccccc1NC(=O)NCc1ccccc1F		inactive: 17.9%
CC(C)(C)OC(=O)N1CCC(c2c(C(=O)N3CCN(c4ccc(Cl)cc4)CC3)cnn2-c2ccc(F)cc2F)CC1	active: 16.4 µM	
COc1ccc(C(=O)NCCSc2ccccc2)cc1OC	inconclusive [inhibitor, single point]	
CCN(c1ccccc1)S(=O)(=O)c1ccc(C(=O)Nc2ccccn2)cc1	inconclusive [inhibitor, single point]	
CCCCSC(=S)N(C)C1CCS(=O)(=O)C1 (centres undefined)	inconclusive [inhibitor, single point]	
NC(=O)c1ccsc1NC(=O)CCS(=O)(=O)c1ccc(Cl)cc1	inconclusive [inhibitor, single point]	
Cc1cccc(N(C)C(=O)C2CCCN2S(=O)(=O)c2cccc3nsnc23)c1 (centres undefined)		inactive: -7.64%
CC[C@]12c3[nH]c4cc(-c5ccco5)ccc4c3CCN1C(=O)[C@@H](CC(=O)NCCC1=CCCCC1)C[C@@H]2C(=O)N1CCN(C(=O)C2CC2)CC1	inconclusive [inhibitor, single point]	
CC(C)Nc1nc(Oc2cccc(Cl)c2Cl)cc(C(F)(F)F)n1	inconclusive [inhibitor, partial curve, poor fit]	
CCOc1ccccc1NC(=O)CCS(=O)(=O)c1ccc2c(c1)CC(C)N2C(C)=O (centres undefined)		inactive: -19.8%
O=C(C1=C[C@@H]2[C@H]3C(=O)N(c4ccc(Cl)cc4)C(=O)[C@H]3[C@@H](C(=O)c3ccc(Cl)cc3)N2C=C1)c1ccccc1		inconclusive: -30.3% [inhibitor]
COC(=O)C1Cc2c([nH]c3ccccc23)C2(CCN(Cc3ccccc3)CC2)N1 (centres undefined)	active: 20.6 µM	
CCOC(=O)N1CCN(C(=O)CSc2nnc(CNC(=O)c3ccccc3F)o2)CC1		inactive: -23.7%
O=C1C=C(Nc2ccccc2)CC(c2ccccc2)C1 (centres undefined)	inconclusive [inhibitor, single point]	
CCCC1Cc2c(sc(N)c2C#N)CO1 (centres undefined)		inactive: -27.6%

Structure (SMILES)	Potency	activity change, negative = growth inhibition
C=CCn1c(SCC(=O)Nc2sccc2C(N)=O)nc2sc(C)c(C)c2c1=O	inconclusive [inhibitor, partial curve]	
N#Cc1c(NC(=O)CSc2nc(-c3ccco3)cc(C(F)(F)F)n2)sc2c1CCCC2	inconclusive [inhibitor, single point]	
Cc1ccc(-n2nc3ccc(N)cc3n2)cc1C	inconclusive [inhibitor, single point]	
COc1ccc(/C(N)=N/OC(=O)c2ccco2)cc1OC	inconclusive [inhibitor, partial curve, poor fit]	
C=CCNC(=O)c1ccc2c3n(nc2c1)-c1ccc(C)cc1CO3	active: 18.4 µM	
CC(=O)NC(=S)Nc1ccc2oc(-c3cc(F)c(F)cc3Cl)nc2c1	inconclusive [inhibitor, partial curve]	
Cc1ccc(CNC(=O)COC(=O)Cc2ccc(-c3ccccc3)cc2)cc1	inconclusive [inhibitor, single point]	
CCN1CC=C2C(C#N)=C(N)C(C#N)(C#N)C(c3cc(Cl)ccc3Cl)C2C1 (centres undefined)	active: 23.1 µM	
COc1ccc(CNC(=O)C2CCN(C(=O)c3cccc(Cl)c3)CC2)cc1		inactive: -25.1%
COC(=O)CSc1ncccc1-c1nc2ccccc2[nH]1	inconclusive [inhibitor, partial curve]	
NC(=O)C1(N2CCCCC2)CCN(Cc2ccc(Br)cc2)CC1	active: 16.4 µM	
COc1ccc(C)cc1S(=O)(=O)N(C)CC(=O)Nc1ccc2c(c1)OCCO2	inconclusive [inhibitor, single point]	
COc1ccc(Cl)cc1NC(=O)c1cc2ccc3ccc(C)[nH]c3c2n1	active: 23.1 µM	
CC(Oc1cccc(Cl)c1)C(=O)Nc1ccncc1 (centres undefined)	inconclusive [inhibitor, partial curve]	
COc1cc(OC)cc(-c2nnc(SCC(=O)Nc3cccc(C(=O)O)c3)s2)c1		inactive: 2.44%
Cc1ccccc1C(=O)Nc1cccc(-c2nnc(SCC(=O)NCc3ccco3)n2C)c1		inactive: -28.4%
Cc1sc2nc(CN3CCCCC3)nc(Cl)c2c1C	active: 16.4 µM	
CCCN1C(=O)c2ccccc2NC1c1ccc(Br)cc1 (centres undefined)	inconclusive [inhibitor, partial curve]	
COc1cc(NC(=O)c2cc(-c3cccs3)on2)c(OC)cc1Cl		inactive: -23.9%
CCOC(=O)C1CCN(C(=O)c2ccc(CNS(=O)(=O)c3ccc(C)cc3)cc2)CC1	inconclusive [inhibitor, single point]	
COc1cccc(C(=O)N2CCC(C(=O)N3CCN(C)CC3)CC2)c1		inactive: -10.3%
COC(C[C@@H]1O[C@@H]1[C@H](O)[C@H](C)OCc1ccccc1)OC		inactive: -1.56%
Cc1cc(C(F)(F)F)c2c(C)nn(-c3ccccc3)c2n1	inconclusive [inhibitor, single point]	
